Several values for one entry are separate records, joined by “and”; a condition that tells them apart may be missing. Equal entries are not always repeated.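 Following 48 hours of exposure in 96-well plates, responses at five concentrations were used to interpolate endpoints linearly. At the GI50, growth is halved. The concentration for full growth arrest is given as TGI.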 Square brackets hold non-standard residues; d marks the D form. Peptide text beside a SMILES is read from it. * marks the point of attachment. Bn2Val = CC(C)[C@@H](C(=O)*)N(Cc1ccccc1)Cc1ccccc1; NHPiperonyl = c1cc2c(cc1CN*)OCO2; NMeV = CN[C@H](C(=O)O)C(C)C; dNMeA = CN[C@H](C)C(=O)O
Test system: NCI-H322M lung
Test: growth of human tumour cells (NCI), 48 h

Structure (SMILES) | TGI | GI50
Nc1nc(N)c2c(CCc3ccc(C(=O)N[C@@H](CCC(=O)O)C(=O)O)cc3)ccnc2n1 | > 100 µM | –
CC1(C)CCCC2(C)C3=C(CCC12)C(=O)OC3 (configuration not stated) | > 100 µM | –
Cc1ccc2oc(=O)cc(CC(=O)O)c2c1 | > 100 µM | –
N#Cc1c(N)n(C2OC(CO)C(O)C2O)c2ncnc(N)c12 (configuration not stated) | 0.237 µM | –
CN(C)c1ccc(/C=N/NC(=O)CSc2nc3sc4c(c3c(=O)n2-c2ccccc2)CCCCC4)cc1 | > 100 µM | 4.22 µM
COc1cccc([C@@H]2C/C(=N\NC(=O)C(=O)N[C@@H](C)c3ccccc3)c3cc4c(cc3N2)OCO4)c1 | > 100 µM | –
CSC1=C(C(=O)N(COCC[Si](C)(C)C)c2ccccc2Br)CCC(C(C)(C)C)C1 (configuration not stated) | 83.8 µM | –
C#CCn1c(=O)c(I)cn(/C(=C\C(=O)OCC)C(=O)OCC)c1=O | 30.4 µM | –
CCOc1cccc2sc(N)nc12 | > 100 µM | –
O=c1ncc(I)c[nH]1 | > 100 µM | > 100 µM
CCC1CCC2C3CC=C4CC(OC(C)=O)C(N)CC4(C)C3CCC12C (configuration not stated) | 11.2 µM | –
O=C(c1ccc(-c2ccccc2)cc1)N(Cc1cccnc1)C(=S)N(Cc1cccnc1)C(=O)c1ccc(-c2ccccc2)cc1 | > 100 µM | –
COc1ccc2c(c1)[n+]([O-])c(/C(C)=N/NC(N)=S)c(C)[n+]2[O-] | > 100 µM | –
O=C1CSC(c2c[nH]c3ccccc23)N1c1cccc([N+](=O)[O-])c1 (configuration not stated) | > 100 µM | –
CC(=O)NC1C(O)C(O)C(CO)OC1n1nc(SCc2ccccc2)c(=O)[nH]c1=O (configuration not stated) | > 100 µM | –
CC(=O)N(C(=O)CC(=O)NNCc1ccccc1Cl)c1ccc(Cl)cc1 | > 10 µM | –
COC(=O)c1c(O)ccc2c1c1cc3ccccc3c(O)c1n2Cc1ccccc1Cl | > 100 µM | –
CC1(C)CCc2cc3c(cc2O1)OC(C)(C)CC3=O | > 100 µM | –
S=C(Nc1ccc(Cl)cc1)c1ccc(CN2CCCCC2)s1 | 45.7 µM | –
N#CC1=C(c2ccccc2)NN(Cc2ccccc2)C(c2ccc(Cl)cc2)CC1=O (configuration not stated) | 75.3 µM | –
C=C(c1ccccc1)[C@@]1(O)CCCC[C@H]1NC(c1ccccc1)c1ccccc1 | 33.4 µM | –
Cc1cc2nn(C3CCCCO3)nc2cc1C (configuration not stated) | > 100 µM | –
CC/C=C\C[C@H](O)C/C=C1/C(=O)C=C[C@@H]1C/C=C\CCCC(=O)OCCS(=O)(=O)c1ccccc1 | 15 µM | 3.51 µM
Cc1cccc(NC(N)=S)c1 | > 100 µM | –
NC(CCCNc1ccc(O)cc1)C(=O)O (configuration not stated) | > 100 µM | –

Structure (SMILES) | TGI | GI50
Cc1cc(N2CCCCC2)nc(NCc2cc(Nc3ccnc4cc(Cl)ccc34)ccc2F)n1 | 3.62 µM | 1.65 µM
CCc1cc(C)cc2[n+]1CC=C2C | > 100 µM | –
COc1cc(-c2nn(-c3ccc(NC(=O)Nc4ccc(Cl)c(C(F)(F)F)c4)cc3)cc2-c2ccncc2)ccc1Cl | 5.38 µM | 1.96 µM
COc1cc2c(cc1OCCCOc1cc3c(cc1OC)C(=O)N1CC(F)(F)C[C@H]1C=N3)N=C[C@@H]1CC(F)(F)CN1C2=O | > 26.3 µM | 5.35 µM
Clc1ccc(/C=c2\nc(-c3ccccc3)n3c2nc2ccccc23)cc1 | > 100 µM | –
CN(C)C(=O)C(NCCO)c1ccccc1 (configuration not stated) | > 100 µM | –
COc1ccc2c(c1)O/C(=C\c1ccc([N+](=O)[O-])o1)C2=O | > 62.1 µM | 4.37 µM
CS(=O)(=O)OCCCCOS(C)(=O)=O | > 1000 µM | > 905 µM
CSC1=NC(=O)CCN1C1OCC(OC(C)=O)C(OC(C)=O)C1OC(C)=O (configuration not stated) | > 31.6 µM | –
CC(C)[C@H](NC(=O)[C@H](C(C)C)N(Cc1ccccc1)Cc1ccccc1)C(=O)N(C)[C@H](C(=O)N1CCC[C@H]1C(=O)N(C)[C@H](C)C(=O)NCc1ccc2c(c1)OCO2)C(C)C (Bn2Val-V[NMeV]P[dNMeA]-NHPiperonyl) | > 100 µM | –
NS(=O)(=O)c1ccc(C(=O)O)cc1 | > 100 µM | –
CCOc1ccc(NC(=O)/C(Cc2nc3ccccc3[nH]c2=O)=N\O)cc1 | > 100 µM | –
CC1=CC[C@@H]2[C@@H](CC[C@@]2(C)O)C(C)(C)[C@H]1CC[C@@H]1[C@@]2(C)CC[C@@H](O)C(C)(C)O[C@@H]2CC[C@]1(C)O | 50 µM | –
CC1(OCc2ccccc2)C(=O)N2C1N(C(=O)OCc1ccccc1)CC2(C)C (configuration not stated) | > 100 µM | –
N=C1/C(=C/c2ccco2)C(=O)N=C2SC=NN12 | > 100 µM | –
C[C@@]1([C@H](OC(=O)c2cccc3ccccc23)C(N)=O)CO1 | 17.1 µM | 5.81 µM
Cc1ccc2c(=O)cc(-c3cc4ccccc4s3)[nH]c2n1 | > 100 µM | –
CN(C)CCNC(=O)c1ccccc1Nc1c(Cl)cccc1Cl | 28.7 µM | –
Nc1cc(N2CCOCC2)nc(=O)n1-c1ccccc1 | > 100 µM | –
C=C(C)[C@@H]1CC[C@]2(C(=O)N3CCN(C)CC3)CC[C@]3(C)[C@H](CC[C@@H]4[C@@]5(C)C/C(=C/c6ccncc6)[C@H](O)C(C)(C)[C@@H]5CC[C@]43C)[C@@H]12 | 76.4 µM | 17.2 µM
O=C(NCCN1CCOCC1)Nc1nc2ccc(Sc3nnc4ccc(-c5ccc(F)cc5)nn34)cc2s1 | > 100 µM | 6.39 µM
CCCCC1CCCCCCc2[nH]c(/C=C3\N=C(c4ccc[nH]4)C=C3OC)cc21 (configuration not stated) | 9.31 µM | –
COC(=O)c1ccc(CS(=O)(=O)c2ccccc2)cc1 | > 100 µM | –
CC(/C=C/c1ccccc1)=N\N=C(C)\C=C\c1ccccc1 | > 100 µM | –
O=[N+]([O-])c1ccc(CSc2c3ccccc3nc3ccccc23)cc1 | 22.7 µM | –

Structure (SMILES) | TGI | GI50
C/C(=N\NC(=O)c1cccc(S(=O)(=O)N2CCN(C)CC2)c1)c1cc(Cl)ccc1O | > 100 µM | 0.47 µM
CO[C@H](C(=O)O[C@H]1C(=O)N2CCC3CCC1C32C)c1ccccc1 (some centres not stated) | > 100 µM | –
Nc1c(C(=O)c2ccc(Cl)cc2)[nH]c(Nc2ccc(Cl)cc2)c1C(=S)Nc1ccccc1 | 66.3 µM | –
COc1ccc(NC(=O)COc2ccccc2)c(C(N)=O)c1 | > 100 µM | 3.21 µM
Cc1cc(Cl)ccc1NC(=O)C1C(=O)C(=O)N(c2ccc(Cl)cc2C)C1=O (configuration not stated) | > 100 µM | –
COc1ccc(C(=C(C#N)C#N)c2ccc(OC)cc2)cc1 | > 100 µM | –
Cc1cc(NCCCNc2ccnc3cc(Cl)ccc23)nc(Nc2ccc(C(=O)N3CCCCC3)cc2)n1 | 7.52 µM | 2.58 µM
c1cc2c(cc1NC1=NCCO1)CCCC2 | 47.7 µM | –
COc1ccc(-c2cnc(SCC(=O)c3c(C)n(C)n(-c4ccccc4)c3=O)n2-c2ccc(OC)cc2)cc1 | > 50 µM | > 50 µM
Nc1ncnc2c1ncn2C1OC(CO)CC1O (configuration not stated) | > 100 µM | –
O=C(/C=C/c1ccc[nH]1)c1ccccc1 | > 100 µM | –
COC1=CC(=O)c2c(O)c3c(c(O)c2C1=O)OC1(Oc2c(cc4cc(C)oc(=O)c4c2O)CC1O)C3O (configuration not stated) | > 100 µM | –
CN(C(=N)c1ccccc1)c1ccccc1 | > 100 µM | –
CC1OC(OC23C(=O)CC(C)(O)CC2(O)C=CC2=C3C(=O)c3ccc(C4CC(OC5CCC(OC6CC(O)C(O)C(C)O6)C(C)O5)C(O)C(C)O4)c(O)c3C2=O)CCC1O (configuration not stated) | 66.5 µM and 64.1 µM | –
COc1ccc(C2CC(c3ccc4ccccc4c3)=NN2/C=C2\SC(=S)N(NC(=O)Cc3ccccc3Nc3c(Cl)cccc3Cl)C2=O)cc1 (configuration not stated) | > 81 µM | 0.575 µM
CC(SC(=S)N(C)C)C(=O)Nc1nnc(-c2ccc(Cl)cc2)o1 (configuration not stated) | > 100 µM | –
C[C@]12CC/C(=N\O)C[C@@H]1CC[C@@H]1[C@@H]2CC[C@]2(C)/C(=N/O)CC[C@@H]12 | 66.2 µM | 24 µM
Clc1ccc(-c2c3nc(c(-c4ccc(Cl)cc4)c4ccc([nH]4)c(-c4ccc(Cl)cc4)c4nc(c(-c5ccc(Cl)cc5)c5ccc2[nH]5)C=C4)C=C3)cc1 | > 100 µM | –
O=C1CCN=C(NC(=O)C(F)(F)F)N1CCc1c[nH]c2ccccc12 | > 100 µM | –
NNC(=O)CC(=O)Nc1ccccc1Cl | > 100 µM | –
CCCCCCCCCCCCCCCCC(=O)NCC(=O)NCC(=O)NC(Cc1ccccc1)C(=O)Oc1ccc([N+](=O)[O-])cc1 (configuration not stated) | > 100 µM | –
C=CC1CC12C(=O)C1OC2(C)C2C(=O)c3c(O)cccc3C(=O)C12 (configuration not stated) | > 100 µM | 36.6 µM
Cn1cc(S(=O)(=O)NC(=O)Nc2ccc(Cl)cc2)c(=O)c2ccc(Cl)cc21 | > 100 µM | –
COc1ccc2c(c1)C(=O)c1c-2n(CCCCl)c(=O)c2cc([N+](=O)[O-])ccc12 | 0.681 µM | 0.0788 µM
Cc1c(C)n(CC(O)CNC2CCCCC2C)c2ccccc12 (configuration not stated) | 28.3 µM | 14.5 µM

Structure (SMILES) | TGI | GI50
CC(C)NC1CCCCC2c3cc(F)ccc3[C@]12O (some centres not stated) | > 100 µM | –
O=C(/C=C/c1ccccc1)Nc1ncc(Cc2ccccc2)s1 | > 35.6 µM | 0.53 µM
C[C@]12CCC(=O)C=C1CC[C@@H]1[C@@H]2CC[C@]2(C)C(=O)/C(=C/c3ccncc3)C[C@@H]12 | 24 µM | –
C=C1CC(COc2ccc3c(C)c(Cl)c(=O)oc3c2)(c2ccccc2)OC1=O (configuration not stated) | 12.1 µM | –
COc1ccc(OC)c2sc(N3C(=O)/C(=C/c4ccc(SC)cc4)N=C3c3ccccc3)nc12 | > 100 µM | –
CC(C)COC(=O)N1N=NC2C3CC(=O)C(O3)C21 (configuration not stated) | > 100 µM | –
CCCCCCCCCCCCCCC(C(=O)[O-])[n+]1ccccc1 (configuration not stated) | > 100 µM | –
O=C(CC(O)c1cccnc1)CC(O)c1cccnc1 (configuration not stated) | 32.9 µM | –
CCCCN1C(=O)C2c3[nH]c4ccccc4c3C3CCCCC3C2C1=O (mixture of isomers) | 49 µM | –
Nc1c(C(=O)c2cccc(C(O)(CO)CO)c2)cnn1-c1ccc(F)cc1 | > 25 µM | > 25 µM
[O-]c1ccccc1[C-]=Nc1ccccc1O.[O-]c1ccccc1[C-]=Nc1ccccc1O.[O]=[U]=[O] | 51.8 µM | 9.28 µM
COc1ccc(-c2c(-c3cc4c(c(OC)c3OC)OCO4)noc2N)cc1 | > 100 µM | 0.625 µM
CC(C)(C)c1cc(O)c2c(c1O)C(=O)CCC2 | > 100 µM | –
Cc1nc2ccc(F)cc2c2c1CCN2c1ccccc1 | 72.3 µM | –
O=C1C2c3[nH]c4ccccc4c3C3CCC(c4ccccc4)CC3C2C(=O)N1c1ccccc1 (configuration not stated) | > 100 µM | –
C[C@]12CC[C@H](OC(=O)Cc3ccc(N(CCCl)CCCl)cc3)CC1CC[C@@H]1C2CC[C@]2(C)NC(=O)CCC12 (some centres not stated) | 30.1 µM | –
CCCCCCCCCCCCCCCCSS(C)(=O)=O | > 100 µM | –
COc1ccc2c(c1)CC[C@@H]1C2CC[C@]2(C)C(=N\O)/C(=N/O)CC12 (some centres not stated) | 37.2 µM | –
S=P(C1CCCCC1)(C1CCCCC1)C(c1cccnc1)N1CCCC1 (configuration not stated) | > 100 µM | –
COc1cccc(-c2cc(=O)c3cc(C)c(C)c(C(=O)O)c3o2)c1 | > 100 µM | –
Cc1cccc(-c2cccc(COCc3cccc(-c4cccc(CO)n4)n3)n2)n1 | > 50 µM | –
COc1ccc2c(c1)OCC1=C2Oc2ccccc2C1 | > 100 µM | –
Clc1ccc(C2ON=C(c3ccccc3)N2C23CC4CC(CC(C4)C2)C3)cc1Cl (configuration not stated) | > 10 µM | –

From PubChem BioAssay (NCI)
